According to US20260232769A1 (WUXI BIOLOGICS IRELAND, published 2026):
Like-named read-outs stand apart in the source and are kept apart here. One block for each binder: values may come before it.

Experiments:
Experiment in all cases: cell-based or functional assay
[1] = target: T1, IL-2Rα/β/γc complex (high affinity receptor) on human activated CD8+ T cells (human, UniProt P01589 22-272; P14784 27-551; P31785 23-369)
T1 sequence (looked up) 1: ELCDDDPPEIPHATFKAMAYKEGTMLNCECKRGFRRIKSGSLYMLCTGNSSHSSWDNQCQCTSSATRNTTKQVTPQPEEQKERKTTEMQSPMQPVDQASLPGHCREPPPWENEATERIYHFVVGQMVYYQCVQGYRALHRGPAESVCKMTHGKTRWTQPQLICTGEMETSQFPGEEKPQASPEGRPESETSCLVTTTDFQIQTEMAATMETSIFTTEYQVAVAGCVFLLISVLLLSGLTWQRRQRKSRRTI
T1 sequence (looked up) 2: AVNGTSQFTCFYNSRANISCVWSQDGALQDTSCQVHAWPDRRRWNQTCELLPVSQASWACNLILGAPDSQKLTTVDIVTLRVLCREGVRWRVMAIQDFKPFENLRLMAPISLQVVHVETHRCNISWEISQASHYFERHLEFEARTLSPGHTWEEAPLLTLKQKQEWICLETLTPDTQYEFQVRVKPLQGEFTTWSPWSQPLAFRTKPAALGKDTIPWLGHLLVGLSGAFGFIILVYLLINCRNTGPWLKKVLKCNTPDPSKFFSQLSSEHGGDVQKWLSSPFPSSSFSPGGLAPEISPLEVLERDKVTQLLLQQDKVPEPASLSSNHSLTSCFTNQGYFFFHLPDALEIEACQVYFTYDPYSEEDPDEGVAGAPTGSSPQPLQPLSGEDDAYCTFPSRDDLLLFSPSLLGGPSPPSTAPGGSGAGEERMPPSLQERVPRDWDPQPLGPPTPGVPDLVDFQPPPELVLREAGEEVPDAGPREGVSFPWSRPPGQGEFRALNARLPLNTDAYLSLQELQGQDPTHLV
T1 sequence (looked up) 3: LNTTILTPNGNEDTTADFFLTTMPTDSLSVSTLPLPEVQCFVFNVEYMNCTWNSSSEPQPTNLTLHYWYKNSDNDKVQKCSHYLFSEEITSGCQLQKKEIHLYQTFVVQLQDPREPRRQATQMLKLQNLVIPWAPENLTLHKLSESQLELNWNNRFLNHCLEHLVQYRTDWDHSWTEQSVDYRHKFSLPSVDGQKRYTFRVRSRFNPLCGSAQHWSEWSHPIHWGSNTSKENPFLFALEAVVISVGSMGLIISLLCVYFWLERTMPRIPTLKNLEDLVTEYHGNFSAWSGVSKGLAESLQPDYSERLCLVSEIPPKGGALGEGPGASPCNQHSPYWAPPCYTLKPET

[2] = target: T2, IL-2Rβ/γc complex (intermediate affinity receptor) on primary human CD8+ T cells (human, UniProt P14784 27-551; P31785 23-369)
T2 sequence (looked up) 1: T1 sequence (looked up) 2
T2 sequence (looked up) 2: T1 sequence (looked up) 3

[3] = target: T1, IL-2Rα/β/γc complex (high affinity …); remark: listed apart in the source
[4] = target: T2, IL-2Rβ/γc complex (intermediate …); remark: listed apart in the source
[5] = target: T1, IL-2Rα/β/γc complex (high affinity …); remark: listed apart in the source
[6] = target: T2, IL-2Rβ/γc complex (intermediate …); remark: listed apart in the source
[7] = target: T3, IL-2Rα (CD25) on human activated CD8+ T cells (human, UniProt P01589 22-272)
T3 sequence (looked up): T1 sequence (looked up) 1

Potency reduction, pSTAT5, human activated CD8+ T [1]: 1 fold | pSTAT5 EC50, human activated CD8+ T [1]: 27 pM | Potency reduction, pSTAT5, human primary CD8+ T [2]: 1 fold | pSTAT5 EC50, human primary CD8+ T [2]: 14.2 nM | Potency reduction, pSTAT5, human activated CD8+ T [3]: 1 fold | pSTAT5 EC50, human activated CD8+ T [3]: 17 pM | Potency reduction, pSTAT5, human primary CD8+ T [4]: 1 fold | pSTAT5 EC50, human primary CD8+ T [4]: 113 nM | Potency reduction, pSTAT5, human activated CD8+ T [5]: 1 fold | Potency reduction, pSTAT5, human primary CD8+ T [6]: 1 fold | pSTAT5 EC50, human primary CD8+ T [6]: 7.65 nM
B1: W3XX115-T2U0.E44-1.uIgG4V322 (Fc fusion)
chain: [letters of about 150 residues left out]ESKYGPPCPPCPAPEAAGGPSVFLFPPKPKDTLMISRTPEVTCVVVDVSQEDPEVQFNWYVDGVEVHNAKTKPREEQFNSTYRVVSVLTVLHQDWLNGKEYKCKVSNKGLPSSIEKTISKAKGQPREPQVYTLPPCQEEMTKNQVSLWCLVKGFYPSDIAVEWESNGQPENNYKTTPPVLDSDGSFFLYSRLTVDKSRWQEGNVFSCSVMHEALHNHYTQKSLSLSLG
heavy: EIQLQQSGPELVKPGASVKVSCKASGYSFTDYNMYWVKQSHGESLEWIGYIDPYNGGTRYNQKFKGKATLTVDKSSSTAFMHLNSLTSEDSAVYYCARNGHWDGAWFAYWGQGTLVTVSAASTKGPSVFPLAPCSRSTSESTAALGCLVKDYFPEPVTVSWNSGALTSGVHTFPAVLQSSGLYSLSSVVTVPSSSLGTKTYTCNVDHKPSNTKVDKRVESKYGPPCPPCPAPEAAGGPSVFLFPPKPKDTLMISRTPEVTCVVVDVSQEDPEVQFNWYVDGVEVHNAKTKPREEQFNSTYRVVSVLTVLHQDWLNGKEYKCKVSNKGLPSSIEKTISKAKGQPREPQVCTLPPSQEEMTKNQVSLSCAVKGFYPSDIAVEWESNGQPENNYKTTPPVLDSDGSFFLVSRLTVDKSRWQEGNVFSCSVMHEALHNHYTQKSLSLSLG
light: DIQMNQSPSSLSASLGDTITITCHASQNINVWLSWYQQKPGNIPKLLIYKASNLHTGVPSRFSGSRSGTGFTLTISSLQPEDIATYYCHQGQSYPFTFGSGTKLEIKRTVAAPSVFIFPPSDEQLKSGTASVVCLLNNFYPREAKVQWKVDNALQSGNSQESVTEQDSKDSTYSLSSTLTLSKADYEKHKVYACEVTHQGLSSPVTKSFNRGEC

Potency reduction, pSTAT5, human activated CD8+ T [3]: 0.9 fold | pSTAT5 EC50, human activated CD8+ T [3]: 15 pM | Potency reduction, pSTAT5, human primary CD8+ T [4]: 4.5 fold | pSTAT5 EC50, human primary CD8+ T [4]: 511 nM | potency ratios of activated CD8+T/primary CD8+T (pSTAT5) [7]: 10000
B2: W3XX115-T2.Z20-4.uIgG4V322 (Fc fusion)
chain: APTSSSTKKTQLQLEHLLLDLQMILNGINNYKNPKLTRMLTFKFYMPKKATELKHLQCLEEELKPLEEVLNLAQSKNFHLRPRDLISNINVIVLELKGSETTFMCEYADRTATIVEFLNRWYTFCQSIL[letters of human IgG4 Fc with S228P F234A L235A (EU numbers) left out]
